Some of the results follow. The main result of the screen is listed elsewhere. These columns were measured beside it and carry no call.
What was measured:
Assay in all cases: Primary Screen for Target Class Profiling of Small Molecule Inhibitors of Methyltransferases
[1] = molecular target: Glycine N-methyltransferase (Homo sapiens) (UniProt Q14749); details: purified enzyme, MTase-Glo SAH luminescence; measured here: GNMT inhibition; at 40 µM; stronger effect = lower value
Summary of the method: (§1)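 Each enzyme was assayed with SAM and its substrate. SAH formation detected by MTase-Glo luminescence; single-point 40 uM screen[…].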

[2] = molecular target: Guanidinoacetate N-methyltransferase (Homo sapiens) (UniProt Q14353); details: purified enzyme, MTase-Glo SAH luminescence; measured here: GAMT inhibition; at 40 µM; stronger effect = lower value
Summary of the method: as §1

[3] = molecular target: Histamine N-methyltransferase (Homo sapiens) (UniProt P50135); details: purified enzyme, MTase-Glo SAH luminescence; measured here: HNMT inhibition; at 40 µM; stronger effect = lower value
Summary of the method: as §1

[4] = molecular target: Nicotinamide N-methyltransferase (Homo sapiens) (UniProt P40261); details: purified enzyme, MTase-Glo SAH luminescence; measured here: NNMT inhibition; at 40 µM; stronger effect = lower value
Summary of the method: as §1

[5] = molecular target: Phenylethanolamine N-methyltransferase (Homo sapiens) (UniProt P11086); details: purified enzyme, MTase-Glo SAH luminescence; measured here: PNMT inhibition; at 40 µM; stronger effect = lower value
Summary of the method: as §1
% is scaled to controls: 0 for no effect and ±100 for the full control effect.

Compound | activity change, negative = inhibition [1] [%] | activity change, negative = inhibition [2] [%] | activity change, negative = inhibition [3] [%] | activity change, negative = inhibition [4] [%] | activity change, negative = inhibition [5] [%]
O=C(NC1CN2CCC1CC2)c1cc2ccoc2cn1 (configuration not stated) | 6.13 | 9.43 | 11.7 | -9.2 | -2.62
O=C(Nc1ccccc1F)N1Cc2ccccc2-n2cccc2C1c1ccc(Cl)cc1 (configuration not stated) | 2.99 | 1.54 | 0.241 | -0.639 | 6.19
Cc1cccc(NC(=O)N[C@H]2CN(C)c3ccccc3C(c3ccccc3)=N2)c1 | -6.97 | -16.2 | 2.46 | -36 | -4.32
CCOCCCNC(=O)N1Cc2ccccc2-n2cccc2C1c1ccccc1Cl (configuration not stated) | 8.89 | 0 | 7.73 | 6.72 | 3.44
CCCNC(=O)N1Cc2ccccc2-n2cccc2C1c1ccc(F)cc1 (configuration not stated) | -1.52 | 0.07 | -0.051 | -8.5 | 1.76
CCOC(=O)CNC(=O)N1Cc2ccccc2-n2cccc2C1c1ccccc1 (configuration not stated) | 10.2 | 0.747 | 6.22 | 5.21 | 7.81
CCOc1ccc(C2c3cccn3-c3ccccc3CN2C(=O)Nc2ccc3c(c2)OCCO3)cc1 (configuration not stated) | 2.16 | 0 | 3.15 | 3.52 | 7.09
C=CCN1CCC2(C)c3cc(O)ccc3C[C@H]1[C@H]2C | -0.319 | – | -61.2 | – | –
C=C(C)[C@H]1CN[C@H](C(=O)O)[C@H]1CC(=O)O | 5.71 | 12.9 | 10.7 | -2.83 | 2.68
NC1CC1c1ccccc1 (configuration not stated) | -3.8 | 3.31 | -12.2 | -7.58 | -24.7
OC[C@H]1C[C@@H](NC2CCC2)[C@H](O)[C@@H]1O | -0.523 | -0.976 | 1.72 | 3.78 | -7.56
Cc1ccc(C2c3cccn3-c3ccccc3CN2C(=O)Nc2ccccc2C)cc1 (configuration not stated) | 1.96 | 0.272 | -5.4 | -1.96 | -1.45
O=C(NC1CCCC1)N1Cc2ccccc2-n2cccc2C1c1cc(F)cc(F)c1 (configuration not stated) | 12.2 | 0 | 6.81 | 1.23 | 7.36
CC1=C2C(=O)C3[C@@H](CC=C4C[C@@H](O)CC[C@@]43C)[C@@H]2CC[C@]12O[C@@H]1C[C@H](C)CN[C@H]1[C@H]2C (some centres not stated) | 4.37 | 8.57 | 3.09 | -8.38 | 3.48
CCc1ccccc1NC(=O)N1Cc2ccccc2-n2cccc2C1c1ccc(N(C)C)cc1 (configuration not stated) | 2.32 | 0.344 | 1.47 | 2.41 | 5.9
COCCCNC(=O)N1Cc2ccccc2-n2cccc2C1c1ccc(OC)cc1 (configuration not stated) | 8.87 | 0 | 1.23 | 0.332 | 1.63
COc1ccc2c3c4n(c2c1)[C@@H](C=C(C)C)OOC(C)(C)C[C@@H]4N1C(=O)[C@@H]2CCCN2C(=O)[C@]1(O)[C@H]3OCC=C(C)C | 5.17 | 0.601 | 4.34 | -15.1 | 5.47
CCCCN1[C@@H]2CC[C@H]1CC(OC(c1ccc(F)cc1)c1ccc(F)cc1)C2 (some centres not stated) | 4.03 | 16.1 | -51.7 | -20.6 | 2.44
O=C1NCCCCCN(Cc2cccnc2)[C@H]2CCC[C@@H]12 | -1.75 | 1.67 | 1.01 | 3 | 6.17
O=C(NCc1ccco1)N1Cc2ccccc2-n2cccc2C1c1ccc(Cl)cc1 (configuration not stated) | 1.47 | 0.658 | 2.43 | -1.66 | 5.19
Cc1ccc(C2c3cccn3-c3ccccc3CN2C(=O)Nc2cc(C)cc(C)c2)cc1 (configuration not stated) | 3.11 | -4.26 | -0.361 | -6.16 | -4.85
O=[S+]1([O-])NCC2(CCN(Cc3ccccn3)C2)Nc2ccccc21 (configuration not stated) | -5.42 | -7.26 | -3.02 | -11.2 | -6.65
Cn1cc(CNCC2(CO)C[C@@H](O)[C@@H](O)C2)c2ccccc21 (some centres not stated) | -2.83 | -2.13 | -5.14 | -8.78 | 11.6
COc1ccc(C2c3cccn3-c3ccccc3CN2C(=O)Nc2ccc(F)cc2F)cc1OC (configuration not stated) | 5.58 | 0 | -1.34 | -2.18 | 2.77
C/C=C(\C)C(=O)OC1CC2C(CC=C3CC(OC4CC(OC)C(OC5CC(OC)C(OC6CC(OC)C(OC7CC(OC)C(O)C(C)O7)C(C)O6)C(C)O5)C(C)O4)CCC32C)C2(O)CCC(C(C)=O)C12C (configuration not stated) | 0 | 6.92 | 1.52 | -5.1 | 5.69
Cc1ccccc1C1c2cccn2-c2ccccc2CN1C(=O)Nc1cccc(C)c1C (configuration not stated) | 0.735 | 1.94 | -4.08 | 3.1 | 2.13
CCOc1ccc(C2c3cccn3-c3ccccc3CN2C(=O)Nc2ccc(C)c(C)c2)cc1 (configuration not stated) | -4.18 | 0 | 7.2 | 6.23 | 2.23
COc1ccc(Cl)cc1NC(=O)N1Cc2ccccc2-n2cccc2C1c1ccc(N(C)C)cc1 (configuration not stated) | 5.55 | 3.41 | -6.17 | 1.06 | 5.29
CCOc1ccc(NC(=O)N2Cc3ccccc3-n3cccc3C2c2cccs2)cc1 (configuration not stated) | 9.04 | 1.8 | 2 | 3.95 | 7.66

Reference: PubChem BioAssay AID1745853 (National Center for Advancing Translational Sciences (NCATS), 2022)
